Test results taken from the supplement of paper PMC8728848.
The list shows a part of the results.

How the values were obtained:
Assay in all cases: glycan array binding signal (z-score within array); higher = stronger binding
Conditions in all cases: glycan notation: IUPAC condensed, linker removed
[1] = molecular target: Neu5Ac(a2-3)Gal(b1-4)GlcNAc(b1-6)GalNAc
Procedure, shortened: (§1)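 The binding signal is a Z-score computed within each array and averaged over linkers. Arrays of the same protein sequence at different concentrations or buffers were also averaged together. Data originate from 3228 arrays in the Consortium for Functional Glycomics database, kept only where the protein sequence was available.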

[2] = molecular target: Neu5Ac(a2-3)Gal(b1-4)GlcNAc(b1-6)[Gal(b1-3)]GalNAc
Procedure, shortened: as §1

[3] = molecular target: Neu5Ac(a2-3)Gal(b1-4)GlcNAc(b1-6)[Neu5Ac(a2-3)Gal(b1-3)]GalNAc
Procedure, shortened: as §1

[4] = molecular target: Neu5Ac(a2-3)Gal(b1-4)GlcNAc6S
Procedure, shortened: as §1

[5] = molecular target: Neu5Ac(a2-3)Gal(b1-4)[Fuc(a1-3)]GlcNAc
Procedure, shortened: as §1

[6] = molecular target: Neu5Ac(a2-3)Gal(b1-4)[Fuc(a1-3)]GlcNAc(b1-2)Man
Procedure, shortened: as §1

[7] = molecular target: Neu5Ac(a2-3)Gal(b1-4)[Fuc(a1-3)]GlcNAc(b1-3)Gal
Procedure, shortened: as §1

[8] = molecular target: Neu5Ac(a2-3)Gal(b1-4)[Fuc(a1-3)]GlcNAc(b1-3)Gal(b1-4)GlcNAc
Procedure, shortened: as §1

[9] = molecular target: Neu5Ac(a2-3)Gal(b1-4)[Fuc(a1-3)]GlcNAc(b1-3)Gal(b1-4)[Fuc(a1-3)]GlcNAc(b1-3)Gal(b1-4)[Fuc(a1-3)]GlcNAc
Procedure, shortened: as §1

[10] = molecular target: Neu5Ac(a2-3)Gal(b1-4)[Fuc(a1-3)]GlcNAc(b1-3)GalNAc
Procedure, shortened: as §1

[11] = molecular target: Neu5Ac(a2-3)Gal(b1-4)[Fuc(a1-3)]GlcNAc(b1-6)[Gal(b1-3)]GalNAc
Procedure, shortened: as §1

[12] = molecular target: Neu5Ac(a2-3)Gal(b1-4)[Fuc(a1-3)]GlcNAc(b1-6)[Neu5Ac(a2-3)Gal(b1-3)]GalNAc
Procedure, shortened: as §1

[13] = molecular target: Neu5Ac(a2-3)Gal(b1-4)[Fuc(a1-3)]GlcNAc6S
Procedure, shortened: as §1

[14] = molecular target: Neu5Ac(a2-3)Gal6S(b1-4)GlcNAc
Procedure, shortened: as §1

[15] = molecular target: Neu5Ac(a2-3)Gal6S(b1-4)[Fuc(a1-3)]GlcNAc
Procedure, shortened: as §1

Neu5Ac(a2-3)GalNAc = molecular target: Neu5Ac(a2-3)GalNAc
Procedure, shortened: as §1

[16] = molecular target: Neu5Ac(a2-3)GalNAc(b1-4)GlcNAc
Procedure, shortened: as §1

[17] = molecular target: Neu5Ac(a2-3)[GalNAc(b1-4)]Gal(b1-4)Glc
Procedure, shortened: as §1

[18] = molecular target: Neu5Ac(a2-3)[GalNAc(b1-4)]Gal(b1-4)GlcNAc
Procedure, shortened: as §1

[19] = molecular target: Neu5Ac(a2-3)[GalNAc(b1-4)]Gal(b1-4)GlcNAc(b1-3)GalNAc
Procedure, shortened: as §1

[20] = molecular target: Neu5Ac(a2-3)[Neu5Ac(a2-6)]GalNAc
Procedure, shortened: as §1

Neu5Ac(a2-6)Gal = molecular target: Neu5Ac(a2-6)Gal
Procedure, shortened: as §1

[21] = molecular target: Neu5Ac(a2-6)Gal(b1-3)GlcNAc(b1-3)[Gal(b1-4)GlcNAc(b1-6)]Gal(b1-4)Glc
Procedure, shortened: as §1

Neu5Ac(a2-6)Gal(b1-4)Glc = molecular target: Neu5Ac(a2-6)Gal(b1-4)Glc
Procedure, shortened: as §1

[22] = molecular target: Neu5Ac(a2-6)Gal(b1-4)GlcNAc
Procedure, shortened: as §1

[23] = molecular target: Neu5Ac(a2-6)Gal(b1-4)GlcNAc(b1-2)Man
Procedure, shortened: as §1

[24] = molecular target: Neu5Ac(a2-6)Gal(b1-4)GlcNAc(b1-2)Man(a1-3)Man(b1-4)GlcNAc(b1-4)GlcNAc
Procedure, shortened: as §1

[25] = molecular target: Neu5Ac(a2-6)Gal(b1-4)GlcNAc(b1-2)Man(a1-3)[Gal(b1-4)GlcNAc(b1-2)Man(a1-6)]Man(b1-4)GlcNAc(b1-4)GlcNAc
Procedure, shortened: as §1

[26] = molecular target: Neu5Ac(a2-6)Gal(b1-4)GlcNAc(b1-2)Man(a1-3)[GlcNAc(b1-2)Man(a1-6)]Man(b1-4)GlcNAc(b1-4)GlcNAc
Procedure, shortened: as §1

[27] = molecular target: Neu5Ac(a2-6)Gal(b1-4)GlcNAc(b1-2)Man(a1-3)[GlcNAc(b1-4)][Neu5Ac(a2-6)Gal(b1-4)GlcNAc(b1-2)Man(a1-6)]Man(b1-4)GlcNAc(b1-4)GlcNAc
Procedure, shortened: as §1

[28] = molecular target: Neu5Ac(a2-6)Gal(b1-4)GlcNAc(b1-2)Man(a1-3)[Man(a1-6)]Man(b1-4)GlcNAc(b1-4)GlcNAc
Procedure, shortened: as §1

[29] = molecular target: Neu5Ac(a2-6)Gal(b1-4)GlcNAc(b1-2)Man(a1-3)[Neu5Ac(a2-3)Gal(b1-4)GlcNAc(b1-2)Man(a1-6)]Man(b1-4)GlcNAc(b1-4)GlcNAc
Procedure, shortened: as §1

[30] = molecular target: Neu5Ac(a2-6)Gal(b1-4)GlcNAc(b1-2)Man(a1-3)[Neu5Ac(a2-6)Gal(b1-4)GlcNAc(b1-2)Man(a1-6)]Man(b1-4)GlcNAc(b1-4)GlcNAc
Procedure, shortened: as §1

[31] = molecular target: Neu5Ac(a2-6)Gal(b1-4)GlcNAc(b1-2)Man(a1-3)[Neu5Ac(a2-6)Gal(b1-4)GlcNAc(b1-2)Man(a1-6)]Man(b1-4)GlcNAc(b1-4)[Fuc(a1-6)]GlcNAc
Procedure, shortened: as §1

[32] = molecular target: Neu5Ac(a2-6)Gal(b1-4)GlcNAc(b1-2)Man(a1-6)Man(b1-4)GlcNAc(b1-4)GlcNAc
Procedure, shortened: as §1

[33] = molecular target: Neu5Ac(a2-6)Gal(b1-4)GlcNAc(b1-2)Man(a1-6)[Gal(b1-4)GlcNAc(b1-2)Man(a1-3)]Man(b1-4)GlcNAc(b1-4)GlcNAc
Procedure, shortened: as §1

[34] = molecular target: Neu5Ac(a2-6)Gal(b1-4)GlcNAc(b1-2)Man(a1-6)[GlcNAc(b1-2)Man(a1-3)]Man(b1-4)GlcNAc(b1-4)GlcNAc
Procedure, shortened: as §1

[35] = molecular target: Neu5Ac(a2-6)Gal(b1-4)GlcNAc(b1-2)Man(a1-6)[Man(a1-3)]Man(b1-4)GlcNAc(b1-4)GlcNAc
Procedure, shortened: as §1

[36] = molecular target: Neu5Ac(a2-6)Gal(b1-4)GlcNAc(b1-2)[Neu5Ac(a2-6)Gal(b1-4)GlcNAc(b1-4)]Man(a1-3)[GlcNAc(b1-4)][Neu5Ac(a2-6)Gal(b1-4)GlcNAc(b1-2)[Neu5Ac(a2-6)Gal(b1-4)GlcNAc(b1-6)]Man(a1-6)]Man(b1-4)GlcNAc(b1-4)GlcNAc
Procedure, shortened: as §1

[37] = molecular target: Neu5Ac(a2-6)Gal(b1-4)GlcNAc(b1-2)[Neu5Ac(a2-6)Gal(b1-4)GlcNAc(b1-4)]Man(a1-3)[GlcNAc(b1-4)][Neu5Ac(a2-6)Gal(b1-4)GlcNAc(b1-4)Man(a1-6)]Man(b1-4)GlcNAc(b1-4)GlcNAc
Procedure, shortened: as §1

[38] = molecular target: Neu5Ac(a2-6)Gal(b1-4)GlcNAc(b1-2)[Neu5Ac(a2-6)Gal(b1-4)GlcNAc(b1-6)]Man(a1-6)[Neu5Ac(a2-6)Gal(b1-4)GlcNAc(b1-2)Man(a1-3)][GlcNAc(b1-4)]Man(b1-4)GlcNAc(b1-4)GlcNAc
Procedure, shortened: as §1

[39] = molecular target: Neu5Ac(a2-6)Gal(b1-4)GlcNAc(b1-3)Gal(b1-3)GlcNAc
Procedure, shortened: as §1

[40] = molecular target: Neu5Ac(a2-6)Gal(b1-4)GlcNAc(b1-3)Gal(b1-4)GlcNAc
Procedure, shortened: as §1

[41] = molecular target: Neu5Ac(a2-6)Gal(b1-4)GlcNAc(b1-3)Gal(b1-4)GlcNAc(b1-2)Man(a1-3)[Neu5Ac(a2-6)Gal(b1-4)GlcNAc(b1-3)Gal(b1-4)GlcNAc(b1-2)Man(a1-6)]GalNAc
Procedure, shortened: as §1

[42] = molecular target: Neu5Ac(a2-6)Gal(b1-4)GlcNAc(b1-3)Gal(b1-4)GlcNAc(b1-3)Gal(b1-4)GlcNAc
Procedure, shortened: as §1

[43] = molecular target: Neu5Ac(a2-6)Gal(b1-4)GlcNAc(b1-3)Gal(b1-4)GlcNAc(b1-3)Gal(b1-4)GlcNAc(b1-2)Man(a1-3)[Neu5Ac(a2-6)Gal(b1-4)GlcNAc(b1-3)Gal(b1-4)GlcNAc(b1-3)Gal(b1-4)GlcNAc(b1-2)Man(a1-6)]GalNAc
Procedure, shortened: as §1

B1: Clone730PsrP (Streptococcus pneumoniae) (protein)
chain: MDHHHHHHHHHHASENLYFQGAMVVGSQTAAATEATAKKVEEDRKKPASDYVASVTNVNLQSYAKRRKRSVDSIEQLLASIKNAAVFSGNTIVNGAPAINASLNIAKSETKVYTGEGVDSVYRVPIYYKLKVTNDGSKLTFTYTVTYVNPKTNDLGNISSMRPGYSIYNSGTSTQTMLTLGSDLGKPSGVKNYITDKNGRQVLSYNTSTMTTQGSGYTWGNGAQMNGFFAKKGYGLTSSWTVPITGTDTSFTFTPYAARTDRIGINYFNGGGKVVESSTT
**Q.** What does the source list for B1?
**A.** glycan array binding signal (z-score) [1]: -0.233; glycan array binding signal (z-score) [2]: 0.026; glycan array binding signal (z-score) [3]: -0.222; glycan array binding signal (z-score) [4]: -0.15; glycan array binding signal (z-score) [5]: -0.465; glycan array binding signal (z-score) [6]: -0.152; glycan array binding signal (z-score) [7]: -0.51; glycan array binding signal (z-score) [8]: -0.001; glycan array binding signal (z-score) [9]: -0.46; glycan array binding signal (z-score) [10]: 0.409; glycan array binding signal (z-score) [11]: -0.435; glycan array binding signal (z-score) [12]: 0.717; glycan array binding signal (z-score) [13]: 1.98; glycan array binding signal (z-score) [14]: -0.513; glycan array binding signal (z-score) [15]: -0.592; glycan array binding signal (z-score) (Neu5Ac(a2-3)GalNAc): 0.52; glycan array binding signal (z-score) [16]: -0.089; glycan array binding signal (z-score) [17]: -0.647; glycan array binding signal (z-score) [18]: -0.603; glycan array binding signal (z-score) [19]: -0.53; glycan array binding signal (z-score) [20]: 0.717; glycan array binding signal (z-score) (Neu5Ac(a2-6)Gal): -0.462; glycan array binding signal (z-score) [21]: -0.471; glycan array binding signal (z-score) (Neu5Ac(a2-6)Gal(b1-4)Glc): 0.156; glycan array binding signal (z-score) [22]: -0.2; glycan array binding signal (z-score) [23]: 0.242; glycan array binding signal (z-score) [24]: -0.343; glycan array binding signal (z-score) [25]: -0.244; glycan array binding signal (z-score) [26]: -0.597; glycan array binding signal (z-score) [27]: -0.568; glycan array binding signal (z-score) [28]: -0.461; glycan array binding signal (z-score) [29]: -0.454; glycan array binding signal (z-score) [30]: -0.105; glycan array binding signal (z-score) [31]: 0.395; glycan array binding signal (z-score) [32]: -0.424; glycan array binding signal (z-score) [33]: -0.545; glycan array binding signal (z-score) [34]: -0.372; glycan array binding signal (z-score) [35]: -0.549; glycan array binding signal (z-score) [36]: -0.264; glycan array binding signal (z-score) [37]: -0.355; glycan array binding signal (z-score) [38]: -0.585; glycan array binding signal (z-score) [39]: -0.279; glycan array binding signal (z-score) [40]: -0.249; glycan array binding signal (z-score) [41]: 0.111; glycan array binding signal (z-score) [42]: 0.043; glycan array binding signal (z-score) [43]: 0.355
